Assays:
Assay in all cases: ITC
[1] = molecular target: ezrin C-terminal fragment (residues 477-586) (human, UniProt P15311 477-586)
[2] = molecular target: T1, IQGAP2 Repeats (IQGAP2 residues 211-591) (human, UniProt Q13576 211-591)
T1 sequence (looked up): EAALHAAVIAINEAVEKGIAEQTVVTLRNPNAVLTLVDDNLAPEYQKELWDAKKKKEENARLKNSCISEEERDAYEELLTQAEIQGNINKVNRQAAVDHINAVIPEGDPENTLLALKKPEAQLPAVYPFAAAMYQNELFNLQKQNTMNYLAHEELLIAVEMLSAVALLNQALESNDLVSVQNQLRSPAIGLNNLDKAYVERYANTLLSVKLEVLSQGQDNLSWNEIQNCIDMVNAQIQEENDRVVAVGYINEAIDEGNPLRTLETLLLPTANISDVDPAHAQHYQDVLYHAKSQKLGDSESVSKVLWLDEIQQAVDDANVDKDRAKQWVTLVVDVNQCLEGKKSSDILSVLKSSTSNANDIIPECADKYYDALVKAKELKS

[3] = molecular target: IQGAP1 Repeats (IQGAP1 residues 156-672), tag removed (human, UniProt P46940 156-672)

Sequence of UniProt P15311 (P15311 477-586): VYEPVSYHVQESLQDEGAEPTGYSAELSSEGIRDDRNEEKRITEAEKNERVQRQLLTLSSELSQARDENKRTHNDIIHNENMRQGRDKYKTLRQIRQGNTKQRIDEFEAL

B1: ezrin FERM domain ([…]) (domain or fragment)
chain: not shown
Which results are given for B1?
dH [1]: -47.9 ± 1.33 kcal/mol; stoichiometry N [1]: 0.815 ± 0.0155; Ka [2]: 143000 M⁻¹; Ka [3]: 171000 M⁻¹
